Out of some 310,000 compounds screened, about 14,000 (4.5%) showed an effect of 50% or more. The effect is printed as a negative number. The list shows a part of the results.
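Further: peak tail current of the secondary pulse compared with the same well before compound.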

The assay deals with human ether-à-go-go-related gene (hERG) potassium channel (human, UniProt Q12809). The assay can be described thus: primary screen, population patch clamp on CHO cells stably expressing hERG.
Sequence of human ether-à-go-go-related gene (hERG) potassium channel (Q12809 whole entry, looked up): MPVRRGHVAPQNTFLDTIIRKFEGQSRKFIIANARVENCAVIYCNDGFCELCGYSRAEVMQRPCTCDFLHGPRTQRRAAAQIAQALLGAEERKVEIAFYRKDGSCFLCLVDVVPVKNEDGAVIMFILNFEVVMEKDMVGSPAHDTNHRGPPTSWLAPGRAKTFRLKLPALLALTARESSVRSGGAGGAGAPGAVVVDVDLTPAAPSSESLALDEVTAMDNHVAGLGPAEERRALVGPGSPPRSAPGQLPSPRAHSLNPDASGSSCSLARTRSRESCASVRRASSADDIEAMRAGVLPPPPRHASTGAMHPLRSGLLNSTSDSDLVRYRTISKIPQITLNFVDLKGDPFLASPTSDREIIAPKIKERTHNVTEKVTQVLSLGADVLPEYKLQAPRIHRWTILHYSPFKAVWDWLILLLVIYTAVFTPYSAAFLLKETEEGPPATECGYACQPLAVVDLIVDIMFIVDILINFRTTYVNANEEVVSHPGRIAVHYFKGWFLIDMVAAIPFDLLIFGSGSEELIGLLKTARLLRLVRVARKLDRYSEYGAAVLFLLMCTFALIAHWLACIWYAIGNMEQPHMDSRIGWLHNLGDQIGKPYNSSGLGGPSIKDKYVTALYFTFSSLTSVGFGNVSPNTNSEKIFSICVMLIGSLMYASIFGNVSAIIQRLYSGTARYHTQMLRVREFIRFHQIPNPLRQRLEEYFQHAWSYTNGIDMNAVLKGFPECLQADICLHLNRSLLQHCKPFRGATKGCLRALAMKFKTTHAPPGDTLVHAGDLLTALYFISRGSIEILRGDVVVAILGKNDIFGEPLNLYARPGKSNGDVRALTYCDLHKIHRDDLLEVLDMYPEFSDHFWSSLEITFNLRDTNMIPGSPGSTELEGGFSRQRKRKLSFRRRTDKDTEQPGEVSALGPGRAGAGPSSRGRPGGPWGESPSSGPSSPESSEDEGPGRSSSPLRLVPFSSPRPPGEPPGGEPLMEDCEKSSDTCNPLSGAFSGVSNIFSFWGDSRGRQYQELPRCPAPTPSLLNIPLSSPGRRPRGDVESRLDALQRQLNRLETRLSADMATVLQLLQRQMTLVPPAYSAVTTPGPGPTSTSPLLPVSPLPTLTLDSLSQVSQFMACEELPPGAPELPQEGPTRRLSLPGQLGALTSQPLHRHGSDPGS
As to `COc1cc(CNC2CCCC2)cc(Cl)c1OCc1ccccc1Cl.Cl`, the “hERG current change (%, negative = inhibition) at 10uM” value is reported as -30%.

As to `COc1ccc(NC(=S)N(Cc2ccc(N(C)C)cc2)Cc2ccco2)cc1`, the “hERG current change (%, negative = inhibition) at 10uM” value is -17.7%.

For `CCCCNc1c(N2CCN(C(=O)OCC)CC2)c(=O)c1=O`, the “hERG current change (%, negative = inhibition) at 10uM” value is 1.29%.

Regarding `CCOC(=O)N1CCC(NC(=O)C(NS(=O)(=O)c2cccc3nsnc23)c2ccccc2)CC1` (stereo not drawn), the “hERG current change (%, negative = inhibition) at 10uM” value is listed as -6.45%.

Turning to `N#Cc1c(N)nc(SCc2ccccn2)c(C#N)c1-c1cccs1`, the “hERG current change (%, negative = inhibition) at 10uM” value is 11.9%.

In the case of `O=[N+]([O-])c1ccc(CCNc2cccc3ccccc23)c([N+](=O)[O-])c1`, the “hERG current change (%, negative = inhibition) at 10uM” value was determined as 5.64%.

As to `COc1cccc(NC(=S)NNC(=O)c2ccccc2OC(F)F)c1`, the “hERG current change (%, negative = inhibition) at 10uM” value was determined as 12.3%.

With `COc1ccc(C(=O)NCc2nnc(SCC(=O)N3CCCC3)o2)cc1`, the “hERG current change (%, negative = inhibition) at 10uM” value was found to be 5.71%.

For the molecule `CC(=O)NN1C(=O)c2ccccc2NC1c1ccccn1` (stereo not drawn), the “hERG current change (%, negative = inhibition) at 10uM” value was determined as 5.85%.

In the case of `COc1ccc(-c2nn(C)c(=O)c3ccccc23)cc1NC(=O)COc1ccc(C)cc1`, the “hERG current change (%, negative = inhibition) at 10uM” value was -3.65%.

Turning to `O=C(NCSc1ccccc1)c1ccccc1`, the “hERG current change (%, negative = inhibition) at 10uM” value was determined as 17.7%.

For the molecule `COc1ccc(CNC(=O)c2c(O)c3ccccc3n(C)c2=O)cc1OC`, the “hERG current change (%, negative = inhibition) at 10uM” value was 9.52%.

As for `COc1cc(C2C3=C(CCCC3=O)Nc3ccc4ncccc4c32)ccc1O` (stereo not drawn), the “hERG current change (%, negative = inhibition) at 10uM” value came out at 5.67%.

On to `Cl.Fc1ccc(C(OCCN2CCCC2)c2ccc(F)cc2)cc1`, for which the “hERG current change (%, negative = inhibition) at 10uM” value was -71.3%.

With `COc1ccc(C)cc1NC(=O)CNC(=O)c1sc2ccccc2c1Cl`, the “hERG current change (%, negative = inhibition) at 10uM” value was -4.35%.

Take `O=C(NCCc1ccc(Cl)cc1Cl)c1cc([N+](=O)[O-])c[nH]c1=O`: the “hERG current change (%, negative = inhibition) at 10uM” value was found to be 21.8%.

In the case of `Cc1nn(-c2ccccc2)c(C)c1C(=O)Nc1ccc(N2CCOCC2)cc1`, the “hERG current change (%, negative = inhibition) at 10uM” value was 15.6%.

Consider `O=C(NCCC(=O)N1CCN(S(=O)(=O)c2ccc(F)cc2)CC1)Nc1ccccc1`, for which the “hERG current change (%, negative = inhibition) at 10uM” value was -2.23%.

Regarding `COc1ccc(N(CC(=O)Nc2ccc(C)c(C)c2)S(=O)(=O)c2c(C)noc2C)cc1`, the “hERG current change (%, negative = inhibition) at 10uM” value was -3.67%.

Take `NC(=O)C1CCN(C(=O)CC(c2ccccc2)c2ccccc2)CC1`: the “hERG current change (%, negative = inhibition) at 10uM” value is listed as -2.39%.

Consider `COc1cc(/C=C2/SC(=S)N(Cc3ccccc3)C2=O)ccc1OS(C)(=O)=O`, for which the “hERG current change (%, negative = inhibition) at 10uM” value was 17.8%.

For `CCCCCCC(=O)Nc1ccc(Cl)cn1`, the “hERG current change (%, negative = inhibition) at 10uM” value was 4.18%.

Turning to `COc1ccc(S(=O)(=O)N2CCN(CC(=O)Nc3cc(OC)cc(OC)c3)CC2)cc1`, the “hERG current change (%, negative = inhibition) at 10uM” value is listed as -0.404%.

Regarding `Cc1ccc(C(=O)COC(=O)c2ccccc2NC(=O)c2ccccc2)cc1[N+](=O)[O-]`, the “hERG current change (%, negative = inhibition) at 10uM” value was determined as 4.55%.

Take `Cc1ccc(/C=N/N(C)C2=NS(=O)(=O)c3ccccc32)cc1`: the “hERG current change (%, negative = inhibition) at 10uM” value came to 8.78%.

On to `NNC(=O)c1ccc(CN2CCCCC2)o1`, for which the “hERG current change (%, negative = inhibition) at 10uM” value amounted to 1.21%.

Turning to `O=C(CC1C(=O)NCCN1C(=O)Nc1ccccc1)Nc1cccc(C(F)(F)F)c1` (stereo not drawn), the “hERG current change (%, negative = inhibition) at 10uM” value is given as 1.16%.

Take `CCN(CC)CCn1nc(C)nc1-c1ccccc1O`: the “hERG current change (%, negative = inhibition) at 10uM” value is reported as -16.9%.

For the molecule `O=C(CNC(=O)c1ccc(Br)cc1)N/N=C/c1cccnc1`, the “hERG current change (%, negative = inhibition) at 10uM” value is recorded as 1.33%.

Regarding `C=CCc1c(C)[nH]c2c(OC)cccc2c1=S`, the “hERG current change (%, negative = inhibition) at 10uM” value is listed as -0.654%.

With `CCN1C(=O)[C@@H]2[C@@H](c3ccc(-c4ccc(Cl)c(Cl)c4)cc3)N3CCCC[C@@]3(C(=O)OC)[C@@H]2C1=O.O=C(O)C(F)(F)F`, the “hERG current change (%, negative = inhibition) at 10uM” value is on record as 6.4%.

For `CC(C)c1ccccc1NC(=O)COC(=O)Cc1ccsc1`, the “hERG current change (%, negative = inhibition) at 10uM” value is reported as 14.9%.

Consider `O=C(Nc1ccccc1)Nc1ccccc1C(=O)NCc1ccco1`, for which the “hERG current change (%, negative = inhibition) at 10uM” value was -13.1%.

Consider `Cc1ccc2c(CC(=O)NC3CCS(=O)(=O)C3)coc2c1C` (stereo not drawn), for which the “hERG current change (%, negative = inhibition) at 10uM” value was determined as 1.78%.

For the molecule `CCOc1cccc(NC(=O)C2CCCN(S(=O)(=O)c3ccc(-n4cnnn4)cc3)C2)c1` (stereo not drawn), the “hERG current change (%, negative = inhibition) at 10uM” value turned out to be 5.5%.

Consider `N#CCCn1cc(/C=N/NC(N)=S)c(-c2ccccc2)n1`, for which the “hERG current change (%, negative = inhibition) at 10uM” value is on record as -28%.

On to `CCN(CC)CCCC(C)NC(=O)c1ccc(C(F)(F)F)cc1.Cl` (stereo not drawn), for which the “hERG current change (%, negative = inhibition) at 10uM” value was -7.01%.

For the molecule `COc1ccccc1-c1coc2cc(OC(=O)/C=C/c3ccccc3)ccc2c1=O`, the “hERG current change (%, negative = inhibition) at 10uM” value is given as -1.25%.

Consider `CCOc1ccc(C2NC(=O)CCC2[N+](=O)[O-])cc1` (stereo not drawn), for which the “hERG current change (%, negative = inhibition) at 10uM” value was 30.9%.

In the case of `Cc1c(C(=O)NCCCN2CCOCC2)oc2c1C1(CCC2)SCCS1`, the “hERG current change (%, negative = inhibition) at 10uM” value is listed as -10.8%.

Turning to `CCCC(C)NC(=O)CSc1nnc2ccccn12` (stereo not drawn), the “hERG current change (%, negative = inhibition) at 10uM” value was determined as 16.8%.

As to `Cc1nc2c(nnn2Cc2ccccc2)c(=O)n1-c1ccccc1`, the “hERG current change (%, negative = inhibition) at 10uM” value is on record as 0.475%.

Take `Cc1ccccc1CSCCNC(=O)c1ccccc1`: the “hERG current change (%, negative = inhibition) at 10uM” value is reported as -1.61%.

As to `CCCCS(=O)Cc1ccccc1` (stereo not drawn), the “hERG current change (%, negative = inhibition) at 10uM” value is listed as -5.94%.

With `O=C(C(Cc1ccccc1)NS(=O)(=O)c1cccc2nsnc12)N1CCC2(CC1)OCCO2` (stereo not drawn), the “hERG current change (%, negative = inhibition) at 10uM” value is -10.2%.

`CCOc1ccc(C(=O)c2ccccc2C(=O)O)cc1OCC`: the “hERG current change (%, negative = inhibition) at 10uM” value is recorded as 21.4%.

Take `CC(C)(C)NC(=O)CN1CCC(O)(c2ccc3c(c2)OCO3)CC1`: the “hERG current change (%, negative = inhibition) at 10uM” value is reported as -3.18%.

For `CCc1nc(Nc2ccccc2OC)c2oc3ccccc3c2n1.Cl`, the “hERG current change (%, negative = inhibition) at 10uM” value was 12.5%.

Turning to `CCn1cc(C2=NC(C)(C)CO2)c2ccccc21`, the “hERG current change (%, negative = inhibition) at 10uM” value is -8.38%.

In the case of `CCOC(=O)C1=Nc2ccccc2C1=[N+]=[N-]`, the “hERG current change (%, negative = inhibition) at 10uM” value is on record as -4.78%.

`COc1cc2c(cc1NC(=O)CSc1cccc[n+]1[O-])oc1ccccc12`: the “hERG current change (%, negative = inhibition) at 10uM” value was -1.41%.

For `COc1cc(/C=C/C(=O)Nc2cccc(S(=O)(=O)NC3=NCCCCC3)c2)ccc1OCC#N`, the “hERG current change (%, negative = inhibition) at 10uM” value was -4.72%.

On to `O=C(O)CCC(=O)N1N=C(c2ccccc2)CC1c1ccc2nccnc2c1` (stereo not drawn), for which the “hERG current change (%, negative = inhibition) at 10uM” value is 7.33%.

For `O=C1CCN(N=Nc2cccc(Cl)c2)N1`, the “hERG current change (%, negative = inhibition) at 10uM” value is recorded as 3.28%.

Turning to `COc1ccc(CCNC(=O)C23CCC(C)(C(=O)C2Br)C3(C)C)cc1OC` (stereo not drawn), the “hERG current change (%, negative = inhibition) at 10uM” value stood at 4.92%.

Take `O=C(COC(=O)c1ccc2c(c1)OCO2)NCc1ccc2c(c1)OCO2`: the “hERG current change (%, negative = inhibition) at 10uM” value was -15.2%.

As for `c1ccc2c(c1)SCc1nnc(-c3ccncc3)n1-2`, the “hERG current change (%, negative = inhibition) at 10uM” value is given as -2.6%.

The record behind these values is PMC4336329 (PLoS ONE, 2015).
